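48-hour exposure; five concentrations; linearly interpolated endpoints. GI50 marks 50% less growth.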 Certain results were filed several times, with different values. This list holds those alone. There may be further records. For some assays here: The values listed for one entry are repeats (runs, samples, wells, individuals or studies). Brackets tell where a record comes from. A, B and so on number the origins entry by entry.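 TGI: concentration producing complete growth inhibition.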 For some assays here: The tests behind the records often covered other concentration ranges, not given here; some values may only mark the edge of a range.
Assays:
Assay in all cases: DTP human tumour cell line panel, 48 h
A498 renal = system: A498 renal
A549 NSCLC = system: A549 NSCLC
EKVX NSCLC = system: EKVX NSCLC
HCT-15 colon = system: HCT-15 colon
HL-60(TB) leukemia = system: HL-60(TB) leukemia
HOP-62 NSCLC = system: HOP-62 NSCLC
K-562 leukemia = system: K-562 leukemia
KM20L2 colon = system: KM20L2 colon
LXFL 529 NSCLC = system: LXFL 529 NSCLC
MOLT-4 leukemia = system: MOLT-4 leukemia
OVCAR-3 ovarian = system: OVCAR-3 ovarian
SN12C renal = system: SN12C renal
SNB-19 CNS = system: SNB-19 CNS
SNB-75 CNS = system: SNB-75 CNS
SW-620 colon = system: SW-620 colon
XF 498 CNS = system: XF 498 CNS
CCRF-CEM leukemia = system: CCRF-CEM leukemia
COLO 205 colon = system: COLO 205 colon
HCT-116 colon = system: HCT-116 colon
NCI-H522 lung = system: NCI-H522 lung
OVCAR-4 ovarian = system: OVCAR-4 ovarian
SK-MEL-5 melanoma = system: SK-MEL-5 melanoma
SR leukemia = system: SR leukemia
NCI-H226 lung = system: NCI-H226 lung
BT-549 breast = system: BT-549 breast
HOP-92 NSCLC = system: HOP-92 NSCLC
NCI/ADR-RES ovarian = system: NCI/ADR-RES ovarian
RPMI-8226 leukemia = system: RPMI-8226 leukemia
SK-MEL-2 melanoma = system: SK-MEL-2 melanoma
UACC-62 melanoma = system: UACC-62 melanoma
HS 578T breast = system: HS 578T breast
MALME-3M melanoma = system: MALME-3M melanoma

## COc1cc2c(cc1OC)[C@H]1CN3CCC[C@H]3C=C1c1ccc(OC)c(O)c1-2
A498 renal
  TGI: 0.138 nM and 220 nM
A549 NSCLC
  TGI: 32.9 nM and 331 nM
EKVX NSCLC
  TGI: 44.8 nM and 10.3 µM
HCT-15 colon
  TGI: 1.61 nM and 10.9 µM
HL-60(TB) leukemia
  TGI: 0.867 nM and 412 nM
HOP-62 NSCLC
  TGI: 0.41 nM and 132 nM
K-562 leukemia
  TGI: 321 nM and 15.8 nM
KM20L2 colon
  TGI: 0.408 nM and 1.2 µM
LXFL 529 NSCLC
  TGI: < 0.1 nM and 1.6 µM
MOLT-4 leukemia
  TGI: 1.65 nM and 243 nM
OVCAR-3 ovarian
  TGI: < 0.1 nM and 142 nM
SN12C renal
  TGI: 3.74 nM and 1.52 µM
SNB-19 CNS
  TGI: < 0.1 nM and 10.8 µM
SNB-75 CNS
  TGI: 0.93 nM and 16.3 nM
SW-620 colon
  TGI: 2.63 nM and 133 nM
XF 498 CNS
  TGI: < 0.1 nM and 221 nM

## CN(C)C(=S)SSC(=S)N(C)C
CCRF-CEM leukemia
  GI50: 31 nM [sample A, mean of 2 tests] and 8.78 µM [sample B, 1 test] and 77.5 nM [sample C, mean of 2 tests]
COLO 205 colon
  GI50: 14.7 µM [sample A, 1 test] and 37.5 nM [sample B, mean of 2 tests]
HCT-116 colon
  GI50: 23.1 µM [sample A, mean of 2 tests] and 13.9 µM [sample B, 1 test] and 59.7 nM [sample C, 1 test]
HL-60(TB) leukemia
  GI50: 15.2 nM [sample A, mean of 2 tests] and 21.6 µM [sample B, 1 test] and 58 nM [sample C, mean of 2 tests]
K-562 leukemia
  GI50: 1.51 µM [sample A, mean of 2 tests] and 1.43 µM [sample B, 1 test] and 75.6 nM [sample C, mean of 3 tests]
MOLT-4 leukemia
  GI50: 5.32 µM [sample A, mean of 2 tests] and 20.9 µM [sample B, 1 test] and 110 nM [sample C, mean of 3 tests]
NCI-H522 lung
  GI50: < 35.1 nM [sample A, mean of 2 tests] and 895 nM [sample B, 1 test] and 73.1 nM [sample C, 1 test]
OVCAR-3 ovarian
  GI50: 96 nM [sample A, mean of 2 tests] and 213 nM [sample B, 1 test] and 1.08 µM [sample C, mean of 2 tests]
  TGI: 26.9 µM [sample A, mean of 2 tests] and 2.3 µM [sample B, 1 test] and 55 µM [sample C, mean of 2 tests]
OVCAR-4 ovarian
  GI50: 14.2 µM [sample A, 1 test] and 7.89 µM [sample B, 1 test] and 156 nM [sample C, mean of 2 tests]
SK-MEL-5 melanoma
  GI50: 1.05 µM [sample A, mean of 2 tests] and 18.1 µM [sample B, 1 test] and 332 nM [sample C, mean of 2 tests]
SR leukemia
  GI50: 11.9 µM [sample A, 1 test] and 22.3 µM [sample B, 1 test] and 68 nM [sample C, mean of 2 tests]

## COC(=O)C1=COC(C)C2CN3CCc4c([nH]c5ccccc45)C3CC12 (centres undefined)
NCI-H226 lung
  GI50: 3.49 µM [sample A, 1 test] and > 100 µM [sample B, 1 test]

## COc1ccc(-c2ccc3c(N4CCOC[C@@H]4C)nc(N4CCOC[C@@H]4C)nc3n2)cc1CO
BT-549 breast
  TGI: 57.2 nM [sample A, mean of 2 tests] and 5.41 µM [sample B, mean of 2 tests]
COLO 205 colon
  TGI: 203 nM [sample A, mean of 2 tests] and 4 µM [sample B, mean of 2 tests]
HL-60(TB) leukemia
  GI50: 14.1 nM [sample A, mean of 2 tests] and 443 nM [sample B, 1 test]
HOP-92 NSCLC
  TGI: 8.39 nM [sample A, mean of 2 tests] and 584 nM [sample B, 1 test]
NCI/ADR-RES ovarian
  TGI: 988 nM [sample A, mean of 2 tests] and > 100 µM [sample B, mean of 2 tests]
RPMI-8226 leukemia
  TGI: 155 nM [sample A, mean of 2 tests] and > 100 µM [sample B, 1 test]
SK-MEL-2 melanoma
  GI50: 6.53 nM [sample A, mean of 2 tests] and 69.1 nM [sample B, 1 test]
  TGI: 41.4 nM [sample A, mean of 2 tests] and 712 nM [sample B, 1 test]
SK-MEL-5 melanoma
  TGI: 54.9 nM [sample A, mean of 2 tests] and 708 nM [sample B, mean of 2 tests]
UACC-62 melanoma
  TGI: 9.51 nM [sample A, mean of 2 tests] and 142 nM [sample B, mean of 2 tests]

## c1ccc2c(c1)[nH]c1c2cc[n+]2cc3c(cc12)CCCC3
OVCAR-3 ovarian
  TGI: 7.31 µM [sample A] and > 100 µM [sample B]
SK-MEL-2 melanoma
  TGI: 3.31 µM [sample A] and > 100 µM [sample B]

## CC(C)CC(C/C=C1/CC(CO)(COC(=O)C(C)(C)C)OC1=O)CC(C)C (centres undefined)
HS 578T breast
  GI50: 4.38 µM [sample A, 1 test] and 260 nM [sample B, mean of 2 tests]
MALME-3M melanoma
  GI50: 11.5 µM [sample A, 1 test] and 224 nM [sample B, 1 test]
  TGI: 25.1 µM [sample A, 1 test] and 697 nM [sample B, 1 test]

From PubChem BioAssay (NCI)
